# Source: PubChem BioAssay (NCATS)
# Inconclusive results, whose numbers are uncertain, are shown with a selection of clear calls. For some assays here: A potency beside an inconclusive call is a rough fit, not a confirmed value. Where a structure was tested more than once in an assay, its records may differ in their call. Active and inactive are the calls of the source. Calls follow the shape of the dose curve; as a rule, active = well fitted curve in the direction sought with a large enough effect; inconclusive = small, poorly fitted or top-dose-only effect, or another doubt; inactive = no such curve, though single readings can be large; an effect the other way counts as inactive or inconclusive.
# What was measured:
# Tov112D = assay: Primary qHTS to identify gynecologic anti-cancer compounds using libraries of approved drugs and bioactive compounds (AID 1345084); conditions: Gynecologic cancer cell panel viability, ATPlite luminescence, 48 h; series mostly up to 57.5 µM; also: nearly all actives have a fitted effect of over 55% in size
# Procedure, shortened: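 Measured: luminescence after ATPlite addition (15 min, RT). Exposure: 48 h, 37 C, 5% CO2.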
# [1] = tested on: Zika virus NS2B-NS3 protease (linked construct); assay: Primary screen NINDS Rhodamine qHTS for Zika virus inhibitors (AID 1347160); also: nearly all actives have a fitted effect of over 55% in size
# Procedure, shortened: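 Purified linked NS2B-NS3 protease (NS2B hydrophilic domain joined to NS3 protease by flexible linker), 25 nM in 10 mM Tris-HCl pH 8.0, 0.01% Tween 20. Compounds titrated, 15 min preincubation at room temperature; 1.5 microM Rhodamine110 substrate, FITC fluorescence change over 15 min.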
# [2] = target: Phospholipid hydroperoxide glutathione peroxidase GPX4 (Homo sapiens) (UniProt P36969); assay: Primary qHTS Assay for Inhibitors of Recombinant Selenoprotein Glutathione Peroxidase 4 (GPX4) (AID 1845192); also: nearly all actives have a fitted effect of over 65% in size
# Procedure, shortened: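 NADPH consumption, followed by fluorescence at 340/450 nm between 0 and 15 min, reports GPX4 activity via coupled glutathione reductase (100 nM). Enzyme 200 nM was pre-exposed to compound 30 min; 0.5 mM cumene hydroperoxide and 1 mM GSH served as substrates.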
# [3] = qHTS of pediatric cancer cell lines to identify multiple opportunities for drug repurposing: Primary screen for BT-12 cells (AID 1347101); also: nearly all actives have a fitted effect of over 25% in size
# Procedure, shortened: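 Cells (500-1,000/well) rested 5 h, then received compounds for 48 h; metabolically active cells were measured by CellTiter-Glo luminescence. Final concentrations spanned up to 46 µM (MIPE, 11-point) or 0.59 nM-46 µM (NPC, 8-point) in primary screens, 11-point in follow-ups.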
# [4] = qHTS of pediatric cancer cell lines to identify multiple opportunities for drug repurposing: Primary screen for MG 63 (6-TG R) cells (AID 1347105); conditions: MG 63 (6-TG R) viability, CellTiter-Glo, 48 h; activity change, negative = cytotoxic: at 46 µM (top of the series) unless noted; also: nearly all actives have a fitted effect of over 50% in size
# Procedure, shortened: (§1)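 Viability was measured as metabolically active cells after 48 hours of treatment, read by CellTiter-Glo luminescence. Compounds were tested at multiple final concentrations, giving concentration-response curves.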
# [5] = Primary qHTS for small molecule stabilizers of the endoplasmic reticulum resident proteome: Secreted ER Calcium Modulated Protein (SERCaMP) assay (AID 1508630); conditions: SH-SY5Y GLuc-SERCaMP (Gaussia luciferase released on ER calcium loss) secretion, thapsigargin, luminescence; series mostly up to 38.4 µM
# Procedure, shortened: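 GLuc-SERCaMP-expressing SH-SY5Y cells, pretreated 16 h with compound, are challenged with thapsigargin to empty ER calcium stores; after 4 h, coelenterazine is added directly to the medium and luminescence is imaged.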
# [6] = Drug repurposing screens with cells derived from glioblastoma tumor samples (AID 1345199); conditions: GBM patient neurospheres viability, ATP luminescence, 48 h; Potency: tumour line A unless noted; series mostly up to 46 µM; also: nearly all actives have a fitted effect of over 40% in size
# Procedure, shortened: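 Four patient lines of CD133+ GBM neurospheres were screened at several concentrations; hits were retested in those lines plus three slower-growing GBM lines, using 48-hour treatment and ATP-based viability.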
# [7] = qHTS of pediatric cancer cell lines to identify multiple opportunities for drug repurposing: Primary screen for BT-37 cells (AID 1347094)
# Procedure, shortened: as §1
# [8] = Quantitative High-Throughput drug screen in 47 multiple myeloma cell lines against the NCATS MIPE library collection: KHM11_PLB cell viability assay (AID 1918962); conditions: KHM11 myeloma cell viability, CellTiter-Glo ATP luminescence, 48 h; series mostly up to 45.8 µM; also: nearly all actives have a fitted effect of over 35% in size
# Procedure, shortened: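 Primary qHTS used for cherry-picking: cells at 500/well, library compounds for 48 h (37C, 5% CO2), luminescent ATP assay.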
# [9] = Quantitative High-Throughput drug screen in 47 multiple myeloma cell lines against the NCATS MIPE library collection: JIM1_ECACC cell viability assay (AID 1918964)
# Procedure, shortened: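 Steps: seed 500 cells per well; pin-transfer MIPE 4.0 library; incubate 48 h at 37C, 5% CO2, humidified; add CellTiter-Glo, 5 min room temperature; read luminescence.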
# [10] = Quantitative High-Throughput drug screen in 47 multiple myeloma cell lines against the NCATS MIPE library collection: L363_DSMZ cell viability assay (AID 1918984); conditions: L363 myeloma viability, CellTiter-Glo ATP luminescence, 48 h; series mostly up to 45.8 µM; also: nearly all actives have a fitted effect of over 40% in size
# Procedure, shortened: (§2)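 Plated at 500 cells per well, myeloma lines received MIPE 4.0 compounds by pin tool. Following 48 h culture at 37 °C, CellTiter-Glo luminescence gave viability relative to DMSO and media-only controls.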
# [11] = Quantitative High-Throughput drug screen in 47 multiple myeloma cell lines against the NCATS MIPE library collection: SKMM1_PLB cell viability assay (AID 1919863); conditions: SKMM1 myeloma viability, CellTiter-Glo ATP, 48 h; viability: active compounds read low; also: nearly all actives have a fitted effect of over 35% in size
# Procedure, shortened: as §2
# [12] = Quantitative High-Throughput drug screen in 47 multiple myeloma cell lines against the NCATS MIPE library collection: UTMC2_PLB cell viability assay (AID 1919868); conditions: CellTiter-Glo ATP luminescence, 48 h; series mostly up to 45.8 µM; also: nearly all actives have a fitted effect of over 55% in size
# Procedure, shortened: as §2
# Potency is read from the fitted curve at half-maximal effect; tags tell the direction and shape of the fitted curve.
# UniProt P36969, sequence (P36969 whole entry, looked up): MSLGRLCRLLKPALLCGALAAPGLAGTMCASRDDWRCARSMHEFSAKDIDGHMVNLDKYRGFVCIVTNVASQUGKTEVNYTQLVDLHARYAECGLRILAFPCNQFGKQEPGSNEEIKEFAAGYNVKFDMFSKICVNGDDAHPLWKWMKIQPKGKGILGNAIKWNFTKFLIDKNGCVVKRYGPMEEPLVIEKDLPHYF
compound,measurement,setting,value
C=CC(C)(O)CC/C=C(\C)C(=O)OC1C(O)C(CO)OC(OC(=O)C23CCC(C)(C)CC2C2=CCC4C5(C)CCC(OC6OC(COC7OCC(OC(C)=O)C(O)C7OC7OC(COC(C)=O)C(O)C(O)C7OC(C)=O)C(O)C(O)C6OC6OCC(O)C(O)C6O)C(C)(C)C5CCC4(C)C2(C)C(O)C3O)C1OC1OCC(OC2OCC(O)C(OC3OCC(O)C(O)C3O)C2O)C(O)C1O (stereo unspecified),Potency,Tov112D,"inconclusive: 3.16 µM [cytotoxic, single point]"
COc1nc2ccc(Br)cc2cc1[C@@H](c1ccccc1)[C@@](O)(CCN(C)C)c1cccc2ccccc12,Potency,[1],inactive
same,Potency,[2],"inconclusive: 35.5 µM [inhibitor, single point]"
O=C(CC1CC(c2ccc(F)cc2F)=NO1)N1CCOCC1 (stereo unspecified),Potency,Tov112D,inactive
COc1cc(C(=O)NCC2(N(C)C)CCCC2)cc(OC)c1OCc1ccccc1,Potency,[2],inactive
COc1ccccc1O,Potency,[3],inactive
same,Potency,[4],"inconclusive: 0.0078 µM [cytotoxic, full curve, poor fit]"
same,Potency,[5],"inconclusive: 8.91 µM [inhibitor, full curve, poor fit]"
CCC[C@@]1(CCc2ccccc2)CC(O)=C([C@H](CC)c2cccc(NS(=O)(=O)c3ccc(C(F)(F)F)cn3)c2)C(=O)O1,Potency,[1],"inconclusive: 25.1 µM [inhibitor, single point]"
same,Potency,[2],active: 6.31 µM
same,Potency,[6],"inconclusive: 20 µM [inhibitor, single point]"
C[C@@H]1COCCN1c1cc(C2(S(C)(=N)=O)CC2)nc(-c2ccnc3[nH]ccc23)n1 (stereo partly specified),Potency,[2],active: 20.2 µM
Cc1ccc(C(C)C)c(O[C@@H]2O[C@H](CO)[C@@H](O)[C@H](O)[C@H]2O)c1,Potency,Tov112D,"inconclusive: 1 µM [cytotoxic, partial curve, poor fit]"
C[C@@H](c1ccc2nccn2c1)n1nnc2ncc(-c3cnn(C)c3)nc21,Potency,[1],inactive
same,Potency,[2],"inconclusive: 32.1 µM [inhibitor, single point]"
CC(O)(C#Cc1ccc2c(c1)N(c1nc(N)ncc1Cl)CC2)c1nccs1 (stereo unspecified),Potency,[7],"inconclusive: 15.3 µM [cytotoxic, partial curve, poor fit]"
same,Potency,[3],"inconclusive: 24.3 µM [cytotoxic, partial curve]"
same,Potency,[4],active: 9.35 µM
same,Potency,[5],inactive
same,Potency,[8],"inconclusive: 18.7 µM [cytotoxic, partial curve, poor fit]"
same,Potency,[9],"inconclusive: 13.2 µM [cytotoxic, partial curve, poor fit]"
same,Potency,[10],active: 16.6 µM
same,Potency,[11],"inconclusive: 37.2 µM [cytotoxic, single point]"
same,Potency,[12],active: 4.18 µM
same,Potency,Tov112D,inactive
NC(=O)c1nc(Nc2ccccc2)sc1NC(=O)C1CCCCC1,Potency,Tov112D,inactive
